The supplement of paper PMC12217912
Some of the results follow. Sequences were assembled here from the parent chain. Inactive controls read about 0.05.

B1: TEV protease; numbered along this chain (parent)
chain: MGESLFKGPRDYNPISSSICHLTNESDGHTTSLYGIGFGPFIITNKHLFRRNNGTLVVQSLHGVFKVKDTTTLQQHLVDGRDMIIIRMPKDFPPFPQKLKFREPQREERICLVTTNFQTKSMSSMVSDTSCTFPSGDGIFWKHWIQTKDGQCGSPLVSTRDGFIVGIHSASNFTNTNNYFTSVPKNFMELLTNQEAQQWVSGWRLNADSVLWGGHKVFMVKPEEPFQPVKEATQL

Variants of: B1
Experiment: raw area under fraction-flipped curve 0-4 h after induction (AUC4h, not background-subtracted), DNA-recorder readout of cleavage of the substrate (dimensionless); higher = more cleavage of the substrate by the protease variant
Conditions: temperature: 34 °C; time window: 0-4 h after rhamnose induction
Method: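 In vivo DNA recorder in E. coli TOP10(DE3) ΔrhaA at 34 °C. Each TEVp single-site mutant (parent TEVp 0) is paired with a single-site variant of the 7-mer TEVs (canonical ENLYFQ|S). The substrate sits between flexible linkers in a Bxb1-sfGFP-TEVs-SsrA fusion, so cleavage stabilises Bxb1 and speeds flipping of a recombination array, read by NGS. The value is the raw area under the fraction-flipped curve over 0-4 h after rhamnose induction (AUC4h), with ≥20 reads per time point. It is not background-subtracted; inactive controls average about 0.047.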
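Note: Bxb1 expression induced with 0.2% (w/v) L-rhamnose at OD600 near 0.5, cultures sampled hourly, flipped fraction per protease–substrate barcode pair counted by paired-end Illumina sequencing.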

| Variant | area with substrate ECLYFQS | area with substrate EDLYFQS | area with substrate EELYFQS | area with substrate EFLYFQS | area with substrate EHLYFQS | area with substrate EPLYFQS | area with substrate ERLYFQS | area with substrate ESLYFQS | area with substrate ETLYFQS | area with substrate EGLYFQS | area with substrate EILYFQS | area with substrate EKLYFQS | area with substrate EMLYFQS | area with substrate EQLYFQS | area with substrate EVLYFQS | area with substrate EWLYFQS | area with substrate EYLYFQS | area with substrate EALYFQS | area with substrate ELLYFQS |
| --- | --- | --- | --- | --- | --- | --- | --- | --- | --- | --- | --- | --- | --- | --- | --- | --- | --- | --- | --- |
| H62V | 0.111 | 0.14 | 0.113 | 0.0649 | 0.103 | 0.122 | 0.0948 | 0.0901 | 0.0973 |  |  |  |  |  |  |  |  |  |  |
| D27A | 0.0892 | 0.109 |  | 0.0751 | 0.114 | 0.108 |  | 0.0899 |  | 0.0805 | 0.102 | 0.11 | 0.0856 | 0.0946 | 0.0837 | 0.0897 | 0.0991 |  |  |
| E231H | 0.0734 | 0.101 |  | 0.0879 |  | 0.11 |  | 0.15 |  | 0.093 |  | 0.123 |  | 0.105 | 0.082 | 0.0967 |  | 0.123 |  |
| E231T | 0.137 |  |  |  | 0.104 |  | 0.0932 | 0.102 | 0.0991 | 0.101 | 0.113 | 0.092 |  | 0.0976 | 0.0931 | 0.0986 |  | 0.129 | 0.103 |
| H21W | 0.131 | 0.104 | 0.141 |  | 0.114 | 0.118 | 0.102 | 0.0839 | 0.149 | 0.103 | 0.091 | 0.122 | 0.115 | 0.141 | 0.0958 | 0.0903 |  |  | 0.0999 |
| V67D | 0.0725 | 0.0683 |  |  |  | 0.113 | 0.0695 | 0.0597 | 0.0622 |  | 0.0545 | 0.085 | 0.0693 | 0.064 | 0.0519 | 0.0646 |  |  | 0.0681 |
| K46P | 0.0641 | 0.0758 | 0.077 |  | 0.0848 | 0.057 | 0.0649 | 0.0645 | 0.0687 |  | 0.0552 | 0.0622 |  | 0.102 | 0.0565 | 0.0654 | 0.0637 |  | 0.0655 |
| R51A | 0.102 | 0.174 |  |  |  |  | 0.093 | 0.117 | 0.118 | 0.0852 | 0.0877 | 0.175 | 0.0997 |  | 0.0987 |  | 0.105 |  |  |
| P222C | 0.085 | 0.108 |  |  |  |  | 0.0794 | 0.0913 |  |  | 0.0853 | 0.0934 | 0.0851 | 0.0911 | 0.0864 |  | 0.102 | 0.0842 |  |
| P222S | 0.0787 | 0.0925 |  |  | 0.0952 | 0.106 | 0.0863 | 0.0992 | 0.0954 | 0.0666 |  | 0.0915 | 0.0862 | 0.103 | 0.1 | 0.0809 | 0.061 | 0.0781 | 0.0761 |
| Q74V | 0.0736 | 0.0852 | 0.0869 | 0.0659 | 0.0799 | 0.0771 |  | 0.0669 |  | 0.0665 | 0.057 |  | 0.061 | 0.0685 | 0.0736 |  | 0.0787 |  |  |
| T44K | 0.0447 |  |  | 0.0449 |  | 0.0506 | 0.0477 | 0.0337 |  |  | 0.0406 | 0.051 | 0.0447 | 0.0476 | 0.0433 |  | 0.05 |  | 0.0532 |
| F38P | 0.0452 |  | 0.0508 |  | 0.0301 | 0.0418 | 0.0459 | 0.0373 | 0.0384 | 0.0376 | 0.0452 | 0.0384 |  | 0.0344 |  | 0.0499 | 0.0289 |  | 0.0393 |
| T70S | 0.113 | 0.102 |  |  | 0.1 |  | 0.114 | 0.094 |  |  | 0.0984 | 0.0954 |  | 0.107 | 0.109 | 0.0975 |  |  | 0.0851 |
